Data on 65 cell lines can be found in the supplement of paper PMC4967469.

The IC50 comes from the fitted curve, where viability falls to half of the control; fits outside the tested doses are given as limits. AUC is the area under the same curve over the 256-fold range up to the top dose, as a fraction: 1 means no effect, lower means more sensitive. An inferred top dose comes from the curve model; the source does not state it. Some results are limits rather than exact numbers.

Compound in the experiment: Cn1cc(C2=C(c3cn(C4CCN(Cc5ccccn5)CC4)c4ccccc34)C(=O)NC2=O)c2ccccc21 [LY317615]
The experiment can be described thus: Viability of human cancer cell lines after 72 h of drug (GDSC screen). As to conditions: top dose inferred. How it is done: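 Human cancer cell lines in 384-well plates, medium with 10% serum, drug for 72 h over a 256-fold dose range (nine 2-fold or five 4-fold steps up to the top dose). Adherent lines were fixed and stained with the nucleic acid dye Syto60, suspension lines read with resazurin; signal relative to control wells, capped at 0 and 100%. One two-parameter sigmoid per drug and line, fitted in a mixed model over all curves with the slope shared within a line.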
By IC50 is commonly meant the midpoint of a concentration-inhibition curve. For the cell line A704 (kidney, adherent, top dose 20 µM), the AUC amounted to 0.939 and the half-inhibitory concentration (IC50) is more than 20 µM.

Consider “CAL-33 (head and neck, adherent, top dose 20 µM)”, for which the AUC turned out to be 0.967 and the IC50 is more than 20 µM.

In the case of “H2595 (mesothelioma, adherent, top dose 20 µM)”, the AUC is 0.667 and the concentration for half-maximal inhibition (IC50) was determined as 4.39 µM.

With “KG-1 (acute myeloid leukaemia, suspension, top dose 20 µM)”, the AUC was determined as 0.905 and the IC50 was more than 20 µM.

On to “NCI-H647 (non-small cell lung carcinoma, adherent, top dose 20 µM)”, for which the AUC is 0.436 and the IC50 was found to be 0.826 µM.

As to “SUP-HD1 (Hodgkin lymphoma, suspension, top dose 20 µM)”, the AUC came out at 0.873 and the IC50 came to 17.6 µM.

On to “TUR (B-cell lymphoma, suspension, top dose 20 µM)”, for which the AUC amounted to 0.88 and the IC50 amounted to 18 µM.

“NCI-H28 (mesothelioma, adherent, top dose 20 µM)”: the AUC turned out to be 0.917 and the IC50 was more than 20 µM.

In the case of “KYSE-510 (oesophagus, adherent, top dose 20 µM)”, the AUC is 0.927 and the IC50 is more than 20 µM.

Turning to “NCI-H1623 (lung adenocarcinoma, adherent, top dose 20 µM)”, the AUC was 0.97 and the IC50 was more than 20 µM.

For the cell line “KY821 (leukaemia, suspension, top dose 20 µM)”, the AUC is 0.826 and the IC50 stood at 10.1 µM.

As for “HCC-56 (large intestine, adherent, top dose 20 µM)”, the AUC is 0.695 and the IC50 was determined as 4.47 µM.

On to “SNU-387 (liver, adherent, top dose 20 µM)”, for which the AUC was 0.845 and the IC50 is 17.6 µM.

On to “NCI-H2141 (small cell lung carcinoma, suspension, top dose 20 µM)”, for which the AUC came to 0.97 and the IC50 was more than 20 µM.

For the cell line “NCI-H2342 (lung adenocarcinoma, adherent, top dose 20 µM)”, the AUC was found to be 0.937 and the 50% inhibitory concentration (IC50) is more than 20 µM.

As to “TALL-1 (T-cell lymphoblastic leukaemia, suspension, top dose 20 µM)”, the AUC was 0.711 and the IC50 turned out to be 4.76 µM.

For the cell line “NCI-H1435 (lung adenocarcinoma, semi-adherent, top dose 20 µM)”, the AUC was determined as 0.911 and the IC50 is more than 20 µM.

Consider “OCI-AML2 (acute myeloid leukaemia, suspension, top dose 20 µM)”, for which the AUC was found to be 0.911 and the IC50 was determined as 15.4 µM.

On to “RERF-GC-1B (stomach, adherent, top dose 20 µM)”, for which the AUC turned out to be 0.979 and the IC50 was more than 20 µM.

Regarding “CAL-29 (bladder, adherent, top dose 20 µM)”, the AUC worked out at 0.821 and the IC50 amounted to 12.8 µM.

For “KURAMOCHI (ovary, adherent, top dose 20 µM)”, the AUC is 0.674 and the concentration for half-maximal inhibition (IC50) came out at 4.17 µM.

As to AGS (stomach, adherent, top dose 20 µM), the AUC came out at 0.963 and the concentration for half-maximal inhibition (IC50) is more than 20 µM.

Take PEO1 (ovary, adherent, top dose 20 µM): the AUC came to 0.894 and the IC50 is more than 20 µM.

Take “RERF-LC-Sq1 (lung squamous cell carcinoma, adherent, top dose 20 µM)”: the AUC is 0.845 and the IC50 was more than 20 µM.

“EFO-27 (ovary, adherent, top dose 20 µM)”: the AUC was determined as 0.761 and the IC50 stood at 8.83 µM.

As to “SUP-T1 (T-cell lymphoblastic leukaemia, suspension, top dose 20 µM)”, the AUC worked out at 0.507 and the IC50 is 1.31 µM.

For “BICR78 (head and neck, adherent, top dose 20 µM)”, the AUC is 0.968 and the IC50 was more than 20 µM.

Consider “JHOS-2 (ovary, adherent, top dose 20 µM)”, for which the AUC was 0.688 and the half-maximal inhibitory concentration (IC50) came to 4.62 µM.

As for “LU-165 (small cell lung carcinoma, suspension, top dose 20 µM)”, the AUC amounted to 0.919 and the IC50 was more than 20 µM.

In the case of “NCI-H446 (small cell lung carcinoma, semi-adherent, top dose 20 µM)”, the AUC came to 0.942 and the IC50 was more than 20 µM.

Take “H2373 (mesothelioma, adherent, top dose 20 µM)”: the AUC is 0.975 and the IC50 is more than 20 µM.

As for “OVCAR-3 (ovary, adherent, top dose 20 µM)”, the AUC came to 0.987 and the IC50 was more than 20 µM.

Consider “CP66-MEL (melanoma, adherent, top dose 20 µM)”, for which the AUC worked out at 0.927 and the IC50 was more than 20 µM.

Consider “SNU-C5 (large intestine, adherent, top dose 20 µM)”, for which the AUC stood at 0.962 and the IC50 was more than 20 µM.

As for “Calu-6 (lung adenocarcinoma, adherent, top dose 20 µM)”, the AUC was 0.853 and the half-maximal inhibitory concentration (IC50) came to 19.4 µM.

For “PCI-4B (head and neck, adherent, top dose 20 µM)”, the AUC amounted to 0.854 and the IC50 was 14.5 µM.

As for “RCC10RGB (kidney, adherent, top dose 10.24 µM)”, the AUC worked out at 0.972 and the IC50 is more than 10.2 µM.

For the cell line “KP-4 (pancreas, adherent, top dose 20 µM)”, the AUC was 0.896 and the IC50 is more than 20 µM.

Regarding “KARPAS-299 (anaplastic large cell lymphoma, suspension, top dose 20 µM)”, the AUC worked out at 0.881 and the IC50 amounted to 15 µM.

For “TGBC11TKB (stomach, adherent, top dose 20 µM)”, the AUC amounted to 0.974 and the IC50 is more than 20 µM.

NEC8 (testis, adherent, top dose 20 µM): the AUC is 0.952 and the IC50 is more than 20 µM.

In the case of “MC116 (B-cell lymphoma, suspension, top dose 20 µM)”, the AUC was found to be 0.595 and the IC50 was found to be 2.11 µM.

On to “HCC-33 (small cell lung carcinoma, adherent, top dose 20 µM)”, for which the AUC is 0.928 and the IC50 is more than 20 µM.

As to “KMOE-2 (acute myeloid leukaemia, suspension, top dose 20 µM)”, the AUC is 0.661 and the IC50 turned out to be 3.31 µM.

“KINGS-1 (glioma, adherent, top dose 20 µM)”: the AUC is 0.945 and the IC50 was more than 20 µM.

Regarding “NOMO-1 (acute myeloid leukaemia, suspension, top dose 20 µM)”, the AUC came to 0.844 and the IC50 was determined as 17.3 µM.

For “HuCCT1 (biliary tract, adherent, top dose 20 µM)”, the AUC is 0.675 and the IC50 came to 4.08 µM.

On to “CFPAC-1 (pancreas, adherent, top dose 20 µM)”, for which the AUC stood at 0.722 and the IC50 was found to be 5.91 µM.

In the case of “LOU-NH91 (lung squamous cell carcinoma, adherent, top dose 20 µM)”, the AUC amounted to 0.924 and the IC50 is more than 20 µM.

“CHSA0108 (chondrosarcoma, adherent, top dose 20 µM)”: the AUC was 0.853 and the IC50 was found to be 19.5 µM.

Regarding “Farage (B-cell lymphoma, suspension, top dose 20 µM)”, the AUC turned out to be 0.684 and the IC50 turned out to be 3.66 µM.

For “SNU-61 (large intestine, adherent, top dose 20 µM)”, the AUC turned out to be 0.625 and the half-inhibitory concentration (IC50) came out at 3.09 µM.

In the case of “RH-41 (rhabdomyosarcoma, adherent, top dose 20 µM)”, the AUC is 0.955 and the IC50 is more than 20 µM.

Take “SK-MEL-1 (melanoma, suspension, top dose 20 µM)”: the AUC amounted to 0.975 and the IC50 is more than 20 µM.

For the cell line “JVM-3 (lymphoid neoplasm, suspension, top dose 20 µM)”, the AUC was 0.785 and the IC50 was 8.71 µM.

For the cell line “BE2-M17 (neuroblastoma, adherent, top dose 20 µM)”, the AUC stood at 0.987 and the IC50 is more than 20 µM.

For “LAMA-84 (chronic myeloid leukaemia, suspension, top dose 20 µM)”, the AUC came out at 0.9 and the IC50 was more than 20 µM.

For the cell line “NUGC-4 (stomach, adherent, top dose 20 µM)”, the AUC is 0.962 and the IC50 is more than 20 µM.

For the cell line “HCC-78 (lung adenocarcinoma, adherent, top dose 20 µM)”, the AUC was 0.727 and the IC50 is 6.25 µM.

With “JM1 (B-cell lymphoma, suspension, top dose 20 µM)”, the AUC came out at 0.713 and the 50% inhibitory concentration (IC50) worked out at 4.52 µM.

As for “TE-10 (oesophagus, adherent, top dose 20 µM)”, the AUC came out at 0.869 and the IC50 is 17.8 µM.

In the case of “NCI-H1666 (lung adenocarcinoma, semi-adherent, top dose 20 µM)”, the AUC was found to be 0.978 and the IC50 is more than 20 µM.

“EBC-1 (lung squamous cell carcinoma, adherent, top dose 20 µM)”: the AUC stood at 0.92 and the IC50 is more than 20 µM.

Take “SU-DHL-16 (B-cell lymphoma, suspension, top dose 20 µM)”: the AUC came out at 0.909 and the IC50 came out at 14 µM.

On to “Becker (glioma, adherent, top dose 20 µM)”, for which the AUC is 0.952 and the 50% inhibitory concentration (IC50) is more than 20 µM.
